# According to PubChem BioAssay AID1347417 (National Center for Advancing Translational Sciences (NCATS), 2020):
# Hit rate of the full screen: of about 120,000 compounds, about 5,300 (4.4%) were called active. The shares of active, inactive and inconclusive entries below differ from those in the screen. The call rests on the fitted dose curve; in most records, active means well fitted inhibition curve with a large enough effect; inconclusive means small, poorly fitted or top-dose-only effect; inactive means no such curve, though single readings can be large or run the other way. Potencies of inconclusive entries are doubtful fits and often do not repeat.
# Test: qHTS Primary assay for Inhibitors of Plasmodium falciparum Dd2 growth in vitro; further: nearly all actives have a fitted effect of over 65% in size
# Conditions: P. falciparum Dd2 growth, SYBR Green, 72 h; series mostly up to 28.9 µM
# In short: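 Readout: SYBR Green fluorescence, 485 nm excitation, 535 nm emission, after ~16 h lysis at 37C. Before that, Dd2-infected red cells (2.5% hematocrit) grew 72 h with compound, 29 uM top final concentration.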
# Potency means the concentration at half of the fitted maximal effect; tags describe the fitted curve by direction and shape.
row,Structure (SMILES),Potency
1,Fc1ccc(-c2nc(Nc3cccc(Cl)c3)nc3c2COc2ccccc2-3)cc1,active: 11.2 µM
2,CC1(CCCCc2ccccc2)COc2ccc(C(=O)Nc3cccnc3)cc2N1 (configuration not stated),"inconclusive: 10 µM [inhibitor, partial curve]"
3,O=C(CCC1N=C2c3ccccc3N=C(SCc3ccccc3F)N2C1=O)NC1CCCCC1 (configuration not stated),"inconclusive: 10 µM [inhibitor, single point]"
4,Cc1noc(C)c1[S+](=O)([O-])N(C)Cc1cccn1C,"inconclusive: 11.2 µM [inhibitor, partial curve, poor fit]"
5,COCCOc1ncccc1-c1noc([C@@H]2CCCN2Cc2ccc(OC)cc2)n1,"inconclusive: 3.16 µM [inhibitor, partial curve, poor fit]"
6,CCN(CC)C(=O)CC[C@@H]1CNC(=O)[C@@H]2C[C@H](NCc3ccccc3)CN12,inactive
7,COCc1nc2nc(-c3ccccc3)c(-c3cccc([S+](C)(=O)[O-])c3)cc2n1C,"inconclusive: 2.82 µM [inhibitor, partial curve, poor fit]"
8,Cc1ccc(C(=O)N2CCc3nc(C)nc(-c4ccc(Cl)cc4)c3CC2)cc1,inactive
9,O=C(CC[C@@H]1CNC(=O)[C@@H]2C[C@H](NC(=O)Nc3cccc(Cl)c3)CN12)NCc1ccccc1,"inconclusive: 5.62 µM [inhibitor, partial curve, poor fit]"
10,CCOC(=O)c1c(Nc2ccc(C)cc2)nnc(-c2ccccc2)c1-c1ccccc1,"inconclusive: 20 µM [inhibitor, single point]"
11,CC(=O)NCCNC[C@@H]1C=C(C)[C@H](Cc2nnc(-c3ccc(C)cc3)o2)C[C@H]1C(C)C,"inconclusive: 3.55 µM [inhibitor, single point]"
12,CC1=C(C(=O)OC2CCCCCC2)C(c2c(F)cccc2Cl)CC(=O)N1 (configuration not stated),inactive
13,CCN(CCCNC(=O)c1c(C)oc2ncn(CC(C)C)c(=O)c12)Cc1ccccc1,"inconclusive: 10 µM [inhibitor, single point]"
14,CCOc1ccc(-c2cc(OC(=O)c3ccc(F)cc3)c3c(C)oc(C)c3c(=O)c2)cc1,"inconclusive: 11.2 µM [inhibitor, single point]"
15,CNC(=O)NC[C@H]1CCN(Cc2ccncc2F)C[C@H]1N(C)C,inactive
16,COc1cc(C(=O)Nc2cc(C)ccc2OCc2cc(=O)n3c(C)csc3n2)cc(OC)c1OC,inactive
17,CC1(c2ccccc2)N(Cc2ccccc2C#N)C(=O)OC12CCN(C(=O)C1CCOCC1)CC2 (configuration not stated),"inconclusive: 20 µM [inhibitor, single point]"
18,O=C(NCc1nnc2cc(-c3nc(C4CC4)no3)ccn12)c1ccc(Cl)cc1,"inconclusive: 3.55 µM [inhibitor, single point]"
19,CC(C)CN1C(=O)COC[C@@H]1[C@H](O)c1ccc(NC(=O)CCc2ccccc2)cc1,"inconclusive: 14.1 µM [inhibitor, single point]"
20,O=S1(=O)NC2(CCCN(Cc3ccc(F)cc3)C2)COc2ccccc21 (configuration not stated),"inconclusive: 17.8 µM [inhibitor, single point]"
21,COc1ccc2[nH]c(C[C@@H]3C[C@@H](C(C)C)[C@H](CNC(=O)C4CCC4)C=C3C)nc2n1,active: 11.2 µM

row,Structure (SMILES),Potency
1,COc1ccccc1-c1noc(-c2ccc(N3CCC(C)CC3)c([N+](=O)[O-])c2)n1,"inconclusive: 12.6 µM [inhibitor, partial curve, poor fit]"
2,COc1cc(C(=O)Nc2cc3c(cc2C)n(C)c(=O)c(=O)n3C)cc(OC)c1OC,"inconclusive: 12.6 µM [inhibitor, single point]"
3,COC[C@@H]1CN(c2cnccn2)C[C@H]1C(=O)NCc1ccc(C)c(C)c1,inactive
4,COCCN1C(=O)c2ccccc2C(C(=O)Nc2cc(C)ccn2)C12CCCC2 (configuration not stated),"inconclusive: 11.2 µM [inhibitor, single point]"
5,O=C(Cn1nc2c(cc1=O)CCCC2)NC1CCN(Cc2ccccc2)CC1,inactive
6,O=C(COc1ccccc1)Nc1ccc([C@@H](O)[C@H]2COCC(=O)N2CCCc2ccccc2)cc1,active: 7.94 µM
7,Fc1ccc(-n2cc(-c3ccccc3)c3c(NC4CCCCC4)ncnc32)cc1,"inconclusive: 15.8 µM [inhibitor, single point]"
8,Cc1cc(C(=O)N2CCCC(c3noc(COc4ccccc4)n3)C2)nn1C (configuration not stated),"inconclusive: 6.31 µM [inhibitor, partial curve, poor fit]"
9,O=C(NCCC1=CCCCC1)c1cccnc1N1CC2CC(C1)[C@H]1CCCC(=O)N1C2 (some centres not stated),"inconclusive: 11.2 µM [inhibitor, single point]"
10,CCN1C(=O)C2(CCN(C(=O)NCCC(C)C)CC2)c2ccccc21,"inconclusive: 10 µM [inhibitor, single point]"
11,COc1ccc(C(=O)N2CCC3(CC2)C(OC)C(=O)N3c2cccc(F)c2)cn1 (configuration not stated),"inconclusive: 10 µM [inhibitor, single point]"
12,O=c1n(-c2ccc(C(F)(F)F)cc2)nc2n1CCN([S+](=O)([O-])c1ccccc1)C2,"inconclusive: 2.51 µM [inhibitor, full curve, poor fit]"
13,Cc1nc2cccnc2n1CC1CCCN(S(=O)(=O)c2ccc(F)cc2)C1 (configuration not stated),"inconclusive: 6.31 µM [inhibitor, single point]"
14,COc1cccc(NC(=O)CSC2=Nc3ccccc3N=C(c3ccc(F)cc3)C2)c1,"inconclusive: 17.8 µM [inhibitor, single point]"
15,O=C(Nc1cccc(Cl)c1)N1CCC(c2noc(COc3cccnc3)n2)CC1,"inconclusive: 12.6 µM [inhibitor, single point]"
16,CC(=O)NC1(C)CN(c2ccc(OC(F)(F)F)cc2)C1,"inconclusive: 39.8 µM [inhibitor, single point]"
17,Cc1ccc(CC(=O)N2CCC3(CC2)N=C(c2ccc(C)cc2)NO3)cc1,"inconclusive: 8.91 µM [inhibitor, partial curve, poor fit]"
18,Cc1cccc(CN2CCCC(O)(CNCc3cccc(C)n3)C2=O)c1 (configuration not stated),inactive
19,O=C(c1ccc(F)cc1)N1CCCC(c2nn(-c3ccc(Cl)cc3)c(=O)[nH]2)C1 (configuration not stated),"inconclusive: 12.6 µM [inhibitor, partial curve]"
20,CCOCCCNC(=O)NC(C)c1c(-n2cccc2)sc2c1CCN(CC)C2 (configuration not stated),"inconclusive: 10 µM [inhibitor, single point]"
21,Cc1ccc(CNC(=O)CCCCn2c(=O)c3ccccc3n(Cc3c(C)cc(C)cc3C)c2=O)cc1,"inconclusive: 1 µM [inhibitor, partial curve, poor fit]"

row,Structure (SMILES),Potency
1,CC(c1cccs1)N(C)Cc1cccc2ccccc12 (configuration not stated),active: 12.6 µM
2,Cc1cccc(NC(=O)N2CCc3c(C(=O)NC(C)(C)C)cccc32)c1,"inconclusive: 6.31 µM [inhibitor, partial curve, poor fit]"
3,CCC(C)(C)C(=O)N1CC(c2nnc(-c3ccc(C)cc3)o2)C2(CCOCC2)C1 (configuration not stated),inactive
4,CCOC(=O)c1ccccc1NC(=O)Cn1c(=O)n(Cc2nc(-c3ccccc3)no2)c(=O)c2ccccc21,"inconclusive: 17.8 µM [inhibitor, single point]"
5,CCn1cc(CN2CC(Oc3ccc(-c4noc(-c5ccncc5)n4)cc3)C2)cn1,active: 1.78 µM
6,CCC(=O)N1CCc2c(C(=O)NCc3cccc(OC)c3OC)cccc21,"inconclusive: 10 µM [inhibitor, single point]"
7,CCc1noc(-c2ccn3c(CNC(=O)Cc4ccc(F)cc4)nnc3c2)n1,"inconclusive: 7.94 µM [inhibitor, partial curve, poor fit]"
8,Cc1ccc(C(=O)N2CCC3(CC2)N(c2ccccc2)C(=O)CS3(=O)=O)s1,"inconclusive: 2.82 µM [inhibitor, partial curve, poor fit]"
9,CCN1CCN(C(=O)c2cnn(-c3ccc(F)cc3)c2-n2cccc2)CC1,"inconclusive: 6.31 µM [inhibitor, partial curve, poor fit]"
10,COc1ccccc1CNC(=O)CN1CC2CC(C1)[C@H]1CCCC(=O)N1C2 (some centres not stated),inactive
11,O=C(CCC1N=C2c3ccccc3N=C(SCC(=O)Nc3ccccc3F)N2C1=O)NCc1ccccc1 (configuration not stated),"inconclusive: 10 µM [inhibitor, single point]"
12,COCCn1ncc(N2CCC(C(=O)N3CCN(C(C)C)CC3)C2)cc1=O (configuration not stated),inactive
13,Cc1ccc(Cl)cc1NC(=O)N(C)CC1CCOCC1,inactive
14,CC1(c2ccccc2)N(Cc2cccnc2)C(=O)OC12CCN(C(=O)c1ccc(F)cc1)CC2 (configuration not stated),"inconclusive: 17.8 µM [inhibitor, single point]"
15,CCC(=O)N1CCN(c2nc3c(s2)CC(C(=O)Nc2ccc(F)cc2)CC3)CC1 (configuration not stated),"inconclusive: 3.98 µM [inhibitor, single point]"
16,CCC(=O)N1CCC(OC2CCN(Cc3cccnc3)CC2)CC1,"inconclusive: 5.62 µM [inhibitor, partial curve, poor fit]"
17,CCOC(=O)C1(Cc2ccccc2F)CCCN(C(=O)c2cccc(C(=O)OC)c2)C1 (configuration not stated),inactive
18,O=c1nc2sc3ccccc3n2c(=O)n1-c1ccc(Cl)c(Cl)c1,"inconclusive: 20 µM [inhibitor, single point]"
19,O=C(CCc1nc2ccccc2s1)NCC(=O)N1CCCCCCNC(=O)CC1c1ccccc1 (configuration not stated),"inconclusive: 7.94 µM [inhibitor, single point]"
20,O=C1c2[nH]nc(-c3ccccc3O)c2C(c2ccc(Cl)cc2)N1Cc1ccco1 (configuration not stated),"inconclusive: 14.1 µM [inhibitor, partial curve, poor fit]"
